# Source: the supplement of paper PMC11383711
# This is one part of the list. Binding of human antibodies (heavy:light variable regions, tested as scFv in one mRNA-display pool) to influenza hemagglutinin, with or without the stem antibody CR9114 bound first. Score = (mean enrichment − median) / interquartile range of that screen; higher = more enriched, 0 = typical non-binder. Active = above the paper's cut-off per screen: stems 28; unblocked H1 Solomon Islands 5, H1 Michigan 3, H3 5, H5 19, H7 2.85, both B 5; blocked 9, 7, H5 10, H7 10, B Phuket 10, B Lee 11.5. Scores are scaled within each screen and are no affinities; replicates correlate at about 0.6 to 0.9, and antibodies rare in the pool are noisier.
# B1: R95-2E11 (protein)
# chain 1: EVQLVESGGGLVQPGRSLRLSCAASGFTFDDYAMHWVRQAPGKGLEWVSGISWNSGHLGYADSVKGRFTISRDNVKNSLYLEMNSLGPEDTALYYCAKDIVGDYGSGSYYDYWGQGTLVTVSS
# chain 2: SYELTQPPSVSVAPGQTARITCGGNNIGSKSVHWYQQKPGQAPVLVVYDDSDRPSGIPERFSGSNSGNTATLTISRVEAGDEADYYCQVWDGSSDHRYVFGTGTKVTVL
# B2: antibody 1A03 (protein)
# chain 1: VQLLESGGGLVNPGRSLRLSCTASGFTFGDYAVSWFRQAPGKGLEWVGFIGSKKYGDTIEYAASVRGRFTISRDDFQSTAYLQMNSLRTEDTGVYFCSRDRQLAEHSMDVWGQGTTVTVSS
# chain 2: DIQMTQSPSSLSASVGDRVTIPCRANQSISTHINWYQQKPGKAPKLVIYGASNLETGVPSRFSGGGSGTDFTLTISSLQPEDIATFYCQQYDTFPITFGQGTRLEIK
# B3: 01.y.01 (protein)
# chain 1: EVQLVESGGGLVQPGGSLRLSCAASGFTFSSYWMTWVRQAPGKGLEWVANIKQDGSSKYYVDSLKGRFTISRDNAKNSLYLQMNSLRDEDTAVYYCARDRTPGYSYGYVDRVVWRNPYYGMDVWGQGTTVAVSS
# chain 2: DIQMTQRPVSLSASVGDTVTITCRASHSIATYLNWYQQKPGKAPNLLISTASDLQSGVPSRFSGSGSGTDFTLTIDSLQPEDFATYYCQQSYSIPLTFGGGTRVEIK
# B4: 051-09-5B06 (protein)
# chain 1: EVQLVESGGGLVKPGGSLRLSCAASGFPISIGWTTWVRQAPGKGLEWVGLMKSDNGGGATLYAAPMKGRFSISRDDSKNTVYLQMDRLETEDTGIYYCSSTADRDYYDTAGFLDFWGPGTLVTVSS
# chain 2: DIVMTQSPLSLTVTPGESASISCRSSQNVQHSNGYNYLHWYLQKPGQSPRLLIYLGSNRASGVPDRFSGSGSGTDFTLKISRVEADDVGVYYCMQALQTRTFGGGTKVEIK
# B5: R95-2B02 (protein)
# chain 1: QVQLVQSGAEVKKPGASVKVSCKASGYTFTGYYLHWVRQAPGQGLEWMGWINPDSGGTSFAQKFQGWATMTSDTSISTAYMELSGLKSDDTAVYYCARIQRAGSGFDLWGQGTMVTVSS
# chain 2: QSALTQPASVSGSPGQSITISCSGTSSDVGSYNLVSWYQQHPGKTPKLMIYDVSKRPSGVSNRFSGSKSGSTASLTVSGLQAEDEADYYCYSYAGSRAWVFGGGTKLTV
# B6: antibody 1D02 (protein)
# chain 1: EVQLVESGGGLEQPGRSLRLSCEASGFTFDEYAMHWVRQAPGKGLEWVSGISWSSGVIGYADSVRGRFTISRDNAKNSLYLQMNSLTGEDTALYYCAKDSVAETAIRGYYFDYWGQGTLVTVSS
# chain 2: DIQMTQSPSTLSASVGDRVTITCRASQYISRWLAWYQQKPGKAPNLLIYDASSLETGVPSRFSGSGSGTEFTLTINSLQPDDFATYYCQQYHSLSALTFGGGTKVEIK
# B7: W85-1F04 (protein)
# chain 1: QVQLVQSGAEVKKPGASVKVSCKASGYTFTTYDINWVRQATGQGLEWMGWMNPNSGNTGSAQNFQGRVTMTRNTSINTAYMELSSLRSDDTAVYYCVRGLGYCTSTSCYGSWFDPWGQGTLVTVSS
# chain 2: EIVMTQSPATLSVSPGERATLSCRASQNISSNLAWYQQKAGQVPRLLIYGASTRATGCPARFSGSGSGTEFTLTISSLQSEDFAVYYCQQYDNWTPITFGQGTRLEIK
# B8: 009-10-2G06 (protein)
# chain 1: EVQLVESGGGFVRPGGSLRLSCVGSGFNFDDSAMHWVRQGPGKGLEWVAGINWKSNDIAYVESVKGRFTISRDNAKRTLFLQMNSLRPDDTALYFCAKDRAGYFYAMAVWGQGATVTVSS
# chain 2: SYELTQPPSMSVAPGQTAKITCGGDHIGIRSVHWYLRRPGRAPVLVLYDLNDRPLGIPERFSGSNSGHTATLTISGVEAGDEGDYYCQVWDGSGDNRGIFGGGTKLTVL
# B9: R95-2C07 (protein)
# chain 1: EVQLVESGGGLVQPGGSLRLSCEVSGFSFSSYWMSWVRQAPGKGLEWVANIKQDGSEKNYVDSVKGRLTISRDNAKNSLYLQMDSLRAEDTAVYYCARDGPHDFWSGYPFDYWGQGTLVTVSS
# chain 2: DIQMTQSPSSLSASVGDRVTITCRASQGIRDDLGWYQQKPGKAPKRLIYAASSLQSGVPSRFSGSGSGTEFTLTISSLQPEDFATYYCLQHNSYPRTFGQGTKVEIK
# B10: 240-14-IgG-1A06 (protein)
# chain 1: QVTLKESGPVLVKPTETLTLTCTVSGFSLSNIIMGVSWIRQPPGRALEWLAHITSKDEKSYSTSLKKRLTISKDTSKSQVVLIMANMDPADTATYYCTRIRWDCGGDCYWTHDFWGQGTLVTVSS
# chain 2: SYELTQPPSVSVSPGQTARITCSGGRLGDTFASWYQQRPGQAPVLVIYRDTMRPSGIPERFSGSNSGHAATLTISGTQTMDEADYYCQVWDTSASAHVFGTGTTVTVL
# B11: 16.ND.95 (protein)
# chain 1: EVQLVESGGGMVQPGRSLRLSCAASGFTFGNYAMHWVRQAPGKGPEWVAVISYDGSQKYYTESVKGRFTISRDSSRNMVFLQMNSLRPDDTALYYCVRDRAASLDYWGQGTLVTVPS
# chain 2: DIQMTQSPVSPSGSVGDRVTITRRASQSIARVVNWYQQKPGRAPKLLIFYASSLESGGPSRFSGRGFGTDFTITISGLQPEDFATYYCQQRYSAPYTFGQGTNLEIK
# B12: 014-10-1D01 (protein)
# chain 1: QVQLQESGPGLVKPSQTLSLICTVSGGSVSSGNHYWSWIRQPAGRGLEWIGRIFSDGSTYYHPSLKSRVTMSLDTSKNQVSLKLSSVTAADTAMYYCARDYSGYDYLAFDIWGQGSMVTVSS
# chain 2: QSVLTQPPSASGTPGQRVTISCSGDNFNIGRNTVNWYQQLPGTAPKLLIYTTNQRPSGVPDRFSGSQSGTSASLAISGLQSEDEADYYCAAWDDSLSGLWVFGGGTKLTVL
# What was measured:
# Assay in all cases: mRNA display binding score; higher = more enriched on the antigen
# [1] = molecular target: Influenza A H1N1 A/Michigan/45/2015 hemagglutinin ectodomain
# Protocol: (§1)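 A pool of natively paired antibodies, displayed as scFv on mRNA, was selected once on antigen-coated beads and sequenced before and after; two replicates.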
# [2] = molecular target: Influenza A H1N1 A/Solomon Islands/3/2006 hemagglutinin ectodomain
# Protocol: as §1
# [3] = molecular target: Influenza A H3N2 A/Singapore/INFIMH-16-0019/2016 hemagglutinin ectodomain; conditions: antigen blocked with: nothing
# Protocol: as §1
# [4] = molecular target: Influenza A H5N1 A/Qinghai/1A/2005 hemagglutinin ectodomain
# Protocol: as §1
# [5] = molecular target: Influenza A H7N9 A/Shanghai/2/2013 hemagglutinin ectodomain
# Protocol: as §1
# [6] = molecular target: Influenza B/Lee/1940 hemagglutinin ectodomain
# Protocol: as §1
# [7] = molecular target: Influenza B/Phuket/3073/2013 hemagglutinin ectodomain
# Protocol: as §1
# [8] = antigen blocked with: 2 µM CR9114 IgG
Binder,"mRNA display binding score [1, 8]",mRNA display binding score ([1]; antigen blocked with: nothing),"mRNA display binding score [2, 8]",mRNA display binding score ([2]; antigen blocked with: nothing),mRNA display binding score [3],"mRNA display binding score [4, 8]",mRNA display binding score ([4]; antigen blocked with: nothing),"mRNA display binding score [5, 8]",mRNA display binding score ([5]; antigen blocked with: nothing),"mRNA display binding score [6, 8]",mRNA display binding score ([6]; antigen blocked with: nothing),"mRNA display binding score [7, 8]",mRNA display binding score ([7]; antigen blocked with: nothing)
B1,inactive: -0.281,inactive: -0.732,inactive: -0.59,inactive: -0.55,inactive: -0.518,inactive: -0.791,inactive: -0.519,inactive: -0.651,inactive: -0.818,inactive: -0.394,inactive: -0.413,inactive: -0.565,inactive: -0.468
B2,inactive: -0.575,inactive: -0.231,inactive: -0.644,inactive: -0.261,inactive: -0.551,inactive: -0.714,inactive: -0.47,inactive: -0.712,inactive: -0.65,inactive: -0.181,inactive: -0.365,inactive: -0.576,inactive: -0.399
B3,inactive: -0.15,inactive: -0.585,inactive: -0.85,inactive: 0.291,inactive: 0.962,inactive: -0.435,inactive: -0.271,inactive: -0.429,inactive: -0.332,inactive: 0.113,inactive: -0.185,inactive: -0.391,inactive: -0.214
B4,inactive: 1.34,inactive: 0.00336,active: 102,active: 178,inactive: 0.452,inactive: 0.0679,inactive: 1.16,inactive: -0.545,inactive: -0.596,inactive: -0.649,inactive: 0.288,inactive: 0.358,inactive: 0.768
B5,inactive: -0.461,inactive: -0.393,inactive: -0.341,inactive: -0.534,inactive: -0.524,inactive: -0.711,inactive: -0.58,inactive: 0.0642,inactive: -0.691,inactive: -0.261,inactive: 0.215,inactive: -0.498,inactive: -0.341
B6,inactive: 0.955,inactive: 0.454,inactive: 1.87,inactive: -0.311,inactive: 0.783,inactive: -0.27,inactive: 1.24,inactive: 1.33,inactive: -0.0606,active: 92.9,active: 258,inactive: 1.19,inactive: 0.294
B7,inactive: 0.77,inactive: 1.01,inactive: 0.296,inactive: 0.39,inactive: 0.178,inactive: 0.938,inactive: 0.326,inactive: 0.322,inactive: 1.27,inactive: 0.158,inactive: 0.35,inactive: 0.472,inactive: 0.102
B8,inactive: -0.263,inactive: -0.351,inactive: -0.466,inactive: -0.273,inactive: -0.198,inactive: -0.554,inactive: -0.395,inactive: -0.0286,inactive: -0.264,inactive: -0.0229,inactive: -0.063,inactive: -0.315,inactive: -0.258
B9,inactive: -0.501,inactive: -0.361,inactive: 0.00117,inactive: -0.232,inactive: -0.128,inactive: -0.411,inactive: -0.346,inactive: 0.239,inactive: -0.578,inactive: 1.01,inactive: -0.307,inactive: 0.173,inactive: -0.345
B10,inactive: 0.319,inactive: -0.259,inactive: -0.218,inactive: -0.565,inactive: -0.431,inactive: -0.861,inactive: -0.343,inactive: -0.0567,inactive: -0.538,inactive: -0.252,inactive: -0.154,inactive: -0.468,inactive: -0.173
B11,inactive: -0.113,inactive: 0.702,inactive: 0.139,inactive: -0.089,inactive: 3.03,inactive: 0.486,inactive: 0.858,inactive: 0.752,inactive: 0.786,inactive: -0.0727,inactive: 0.141,inactive: 0.123,inactive: 0.391
B12,inactive: -0.389,inactive: -0.349,inactive: -0.525,inactive: -0.154,inactive: -0.113,inactive: -0.528,inactive: -0.301,inactive: -0.802,inactive: -0.424,inactive: -0.78,inactive: -0.333,inactive: -0.455,inactive: -0.289
